Read-outs that look alike come from different tables or passages of the source.
T1: Human CD39-His protein (CD9-H52H4, ACRO Biosystems) (human, UniProt P49961 38-478)
T1 construct: Purchased protein; also called human CD39-His antigen; human CD39 protein; not shown: His tag
T1 sequence (looked up): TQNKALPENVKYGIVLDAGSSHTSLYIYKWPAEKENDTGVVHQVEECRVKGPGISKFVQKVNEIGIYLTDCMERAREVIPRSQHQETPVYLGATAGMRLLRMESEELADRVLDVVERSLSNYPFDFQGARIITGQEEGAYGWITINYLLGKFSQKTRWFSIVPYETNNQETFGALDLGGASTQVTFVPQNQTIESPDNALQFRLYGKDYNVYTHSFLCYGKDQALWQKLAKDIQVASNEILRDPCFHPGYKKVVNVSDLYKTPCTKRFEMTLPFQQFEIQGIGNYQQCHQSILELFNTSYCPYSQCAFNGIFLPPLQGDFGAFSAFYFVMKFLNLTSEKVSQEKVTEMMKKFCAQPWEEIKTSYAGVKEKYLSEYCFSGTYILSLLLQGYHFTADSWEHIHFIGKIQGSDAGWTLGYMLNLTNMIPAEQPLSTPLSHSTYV


Legend:
[1] = biological target: T1, Human CD39-His protein (CD9-H52H4, ACRO …); assay: BLI (Fortebio), antibody on AHC probe, human CD39-His in solution
[2] = biological target: T1, Human CD39-His protein (CD9-H52H4, ACRO …); assay: as above; remark: listed apart in the source

| Kd [1] [nM] | koff [1] [s⁻¹] | kon [1] [M⁻¹ s⁻¹] | Kd [2] [nM] | koff [2] [s⁻¹] | kon [2] [M⁻¹ s⁻¹] | Binder |
| --- | --- | --- | --- | --- | --- | --- |
| 1.15 | 0.000151 | 132000 | – | – | – | B393-D07 (Fc fusion, Bivalent VHH-IgG4 Fc made in Expi293F; no extra linker is stated) QLQLVESGGGLVQPGGSLRLSCAASGFTLDYYAIAWFRQRPGKEREGVSCISSSNGNINYADSVKGRFTASRDNAKNTVYLQMNSLKPEDTAVYYCAADLSAAPYNDAVRSCTGGSRLRATYDFWGQGTQVTVSS[human IgG4 Fc with S228P (EU numbers) omitted here] |
| 0.264 | 4.06e-05 | 154000 | – | – | – | B39C8-G05 (Fc fusion, Bivalent VHH-IgG4 Fc made in Expi293F; no extra linker is stated) EVQVVESGGGLVQPGGSLRLSCAASGFTLDYYAIAWFRQAPGKGREGVSCISSSGGSTNYADSVKGRFTASRDTAKNTVYLQMNSLKPEDTAVYYCAADLSAAPYNDAVRSCTGGNRLAATYDFWGQGTQVTVSS[human IgG4 Fc with S228P (EU numbers) omitted here] |
| 7.76 | 0.000778 | 100000 | – | – | – | B391-A04 (Fc fusion, Bivalent VHH-IgG4 Fc made in Expi293F; no extra linker is stated) QVQLVESGGGLVQAGGSLRLSCTASGGTFSSRTMGWFRQPPGKEREFVAIMTWIGDVGLYADSVKGRFTISRDNARNTLYLQMNNLKPEDTAVYYCGASRGGSYSMVIHTTSPNDYDYWGQGTQVTVSS[human IgG4 Fc with S228P (EU numbers) omitted here] |
| 0.579 | 8.25e-05 | 143000 | – | – | – | B39C6-G06 (Fc fusion, Bivalent VHH-IgG4 Fc made in Expi293F; no extra linker is stated) QLQLVESGGGLVQPGGSLRLSCAASGFTLDYYAIGWFRQAPGKEREGVACISSSGGSTNYADFVRGRFSSSRDNAKNTVYLQMDSLKPEDTAVYYCAADVSTAPYNDAVRSCTGGNRLASTYDVWGQGTQVTVSS[human IgG4 Fc with S228P (EU numbers) omitted here] |
| 5.23 | 0.000447 | 85500 | – | – | – | B391-G06 (Fc fusion, Bivalent VHH-IgG4 Fc made in Expi293F; no extra linker is stated) QLQLVESGGGLVQTGGSLRLSCTASGGTFRSKTMGWFRQAPGKEREFVAIMTWIGDVGLYADSVKGRFTISRDNARNTLYLQMNNLKPEDTAVYYCGASRGGPPYSMVVHTTSPNGYDYWGQGTQVTVSS[human IgG4 Fc with S228P (EU numbers) omitted here] |
| – | – | – | 0.866 | 0.000354 | 409000 | B391-hF04 (Fc fusion, also called B391-hF04 humanized antibody; humanized B391-F04) EVQLVESGGGLVQPGGSLRLSCAASGFTFSNLGMSWYRQAPGKAREWVGSISASGDYTTYQNSVKGRFTISRDNSKNTLYLQMNSLRAEDTAVYYCTRRVDSYPRGQGTLVTVSS[human IgG4 Fc with S228P (EU numbers) omitted here] |

Source: EP4722247A1 (Oricell Therapeutics Co., Ltd., dated 2026)
